Some of the results follow.

This test has as its system HSkMC (human skeletal muscle cells). The experiment in a line: cytotoxicity call (relative viability < 0.9). The following applies: 10 µM.
As to `C[C@H]1CCCCO[C@@H](CN(C)Cc2ccccc2)[C@@H](C)CN([C@@H](C)CO)C(=O)c2cc(NC(=O)C3CCCCC3)ccc2O1`, the cytotoxicity call is “inactive”.
For `C[C@@H]1CN([C@H](C)CO)C(=O)c2cc(/C=C/c3ccccc3)cnc2O[C@@H]1CN(C)C(=O)c1cnccn1`, the cytotoxicity call was “inactive”.
To `COc1ccc(NC(=O)Nc2ccc3c(c2)C(=O)N([C@H](C)CO)C[C@@H](C)[C@H](CN(C)C(=O)Nc2ccc(F)cc2)OCCCC[C@@H](C)O3)cc1` belongs “inactive”; to `Cc1cc(NC(=O)CCCC(=O)O)n(C)n1`, “inactive”; to `C[C@@H]1CN([C@H](C)CO)S(=O)(=O)c2ccc(Br)cc2O[C@@H]1CN(C)S(=O)(=O)c1ccc(F)cc1`, “inactive”.
Regarding `COc1ccc(S(=O)(=O)N2C[C@@H](O)COC[C@@H]3O[C@@H](CC(=O)N[C@H]4CCN(Cc5ccccc5)C4)CC[C@H]32)cc1`, the cytotoxicity call was “inactive”.
Consider `O=C(N1CCOCC1)[C@@]1(CCS(=O)(=O)c2ccccc2)COC(c2ccc(OCCCO)cc2)=N1`, for which the cytotoxicity call was “inactive”.
As for `COc1ncnc(N)c1OC`, the cytotoxicity call was “inactive”.
Regarding `C[C@@H]1CN([C@@H](C)CO)C(=O)c2cccc(NC(=O)Nc3ccc(F)cc3)c2O[C@H]1CN(C)Cc1ccc(Cl)c(Cl)c1`, the cytotoxicity call was “inactive”.
In the case of `Cc1ccc(S(=O)(=O)N(C)C[C@H]2Oc3c(NS(=O)(=O)c4ccc(F)cc4)cccc3C(=O)N([C@@H](C)CO)C[C@@H]2C)cc1`, the cytotoxicity call was “inactive”.
`COC(=O)c1c(CC[C@@H](CO)NC(=O)N[C@@H](C)Cn2cc(-c3ccccn3)nn2)oc(C(C)=O)c1C(=O)OC`: the cytotoxicity call is “inactive”.
For `O=C(c1ccc(Cl)cc1)n1c2ccccc2c2ccccc21`, the cytotoxicity call is “inactive”.
Regarding `O=C(O)/C=C/C(=O)N1CCN(C(=O)/C=C/C(=O)O)CC1`, the cytotoxicity call was “inactive”.
For the molecule `C[C@H]1CN([C@@H](C)CO)C(=O)Cc2cc(NC(=O)NC3CCCCC3)ccc2O[C@@H]1CN(C)Cc1ccc(Cl)c(Cl)c1`, the cytotoxicity call was “inactive”.
To `CCC[C@@H](O)C#Cc1cnc2c(c1)C(=O)N([C@H](C)CO)C[C@H](C)[C@H](CN(C)C(=O)Nc1ccc(F)cc1)O2` belongs “inactive”; to `CC(C)NC(=O)Nc1cccc2c1O[C@H](CN(C)S(=O)(=O)c1cccs1)[C@@H](C)CN([C@@H](C)CO)C2=O`, “inactive”.
As for `O=C1CCC(C(=O)N2CSCC2C(=O)O)N1` (stereo not given), the cytotoxicity call was “inactive”.
Regarding `CN1C(=O)c2cc(NC(=O)c3cccs3)ccc2OC[C@@H]2O[C@H](CC(=O)NCC(F)(F)F)CC[C@H]21`, the cytotoxicity call was “inactive”.
On to `C[C@@H]1CN([C@H](C)CO)C(=O)c2cc(NC(=O)Cc3ccccc3)ccc2O[C@@H](C)CCCCO[C@@H]1CN(C)C(=O)CCC(F)(F)F`, for which the cytotoxicity call was “inactive”.
Take `COC(=O)/C=C/c1cn([C@H]2OC[C@@H](CO)[C@@H]2O)c(=O)[nH]c1=O`: the cytotoxicity call is “inactive”.
To `C[C@@H](O)c1ccc2ccccc2c1` belongs “inactive”.
As for `O=c1nc(Nc2ccccc2)[nH]c(=O)[nH]1`, the cytotoxicity call was “inactive”.
For `CCOC(=O)c1cc2c(c(-c3cccc(C#CCN(C)C)c3)n1)[C@@H](CCO[Si](C)(C)C(C)(C)C)N([S@](=O)C(C)(C)C)C2`, the cytotoxicity call was “inactive”.
Regarding `Cc1ccc(S(=O)(=O)Nc2cccc3c2O[C@H](CN(C)Cc2ccc(Cl)c(Cl)c2)[C@@H](C)CN([C@H](C)CO)C3=O)cc1`, the cytotoxicity call was “inactive”.
Consider `O=C(NCc1csnn1)c1csnn1`, for which the cytotoxicity call was “inactive”.
On to `C[C@@H]1CCCCO[C@@H](CN(C)C(=O)c2ccccc2)[C@@H](C)CN([C@H](C)CO)C(=O)c2cc(NS(=O)(=O)c3ccc(Cl)cc3)ccc2O1`, for which the cytotoxicity call was “inactive”.
For the molecule `CS(=O)(=O)N1C[C@H](O)COC[C@@H]2O[C@@H](CC(=O)NCCc3ccncc3)CC[C@H]21`, the cytotoxicity call was “inactive”.
For `COCC(=O)N1C[C@@H](C)[C@@H](OC)CN(C)C(=O)c2cc(NC(=O)c3ccc(OC)cc3)ccc2OC[C@@H]1C`, the cytotoxicity call was “inactive”.
For `CC(C)NC(=O)N(C)C[C@H]1Oc2ccc(NS(=O)(=O)c3ccc(F)cc3)cc2CC(=O)N([C@H](C)CO)C[C@@H]1C`, the cytotoxicity call was “inactive”.
To `Cc1noc(C)c1NC(=O)Nc1ccc2c(c1)C(=O)N([C@H](C)CO)C[C@H](C)[C@H](CN(C)C(=O)Nc1cccc3ccccc13)O2` belongs “inactive”.
On to `CCCNC(=O)[C@@]1(C)c2ccccc2C(=O)N(Cc2ccc(OC(F)(F)F)cc2)[C@H]1c1ccc(CO)cc1`, for which the cytotoxicity call is “inactive”.
For `Cc1noc(C)c1S(=O)(=O)Nc1ccc2c(c1)C(=O)N([C@@H](C)CO)C[C@H](C)[C@@H](CN(C)C(=O)Nc1ccc(C(F)(F)F)cc1)OCCCC[C@@H](C)O2`, the cytotoxicity call is “inactive”.
With `CCCC#Cc1ccc2c(c1)O[C@@H](CN(C)S(=O)(=O)c1cccc(F)c1)[C@@H](C)CN([C@@H](C)CO)S2(=O)=O`, the cytotoxicity call is “inactive”.
Regarding `COc1ccc(CN(C)C[C@H]2OCCCC[C@@H](C)Oc3ccc(NC(=O)NC(C)C)cc3C(=O)N([C@H](C)CO)C[C@H]2C)cc1`, the cytotoxicity call is “inactive”.
On to `CN(C)C(=O)C[C@@H]1CC[C@H](NC(=O)C2CCOCC2)[C@H](CO)O1`, for which the cytotoxicity call was “inactive”.
To `C[C@H]1CN([C@@H](C)CO)C(=O)c2cccc(NC(=O)C3CCOCC3)c2O[C@@H]1CN(C)C(=O)NC1CCCCC1` belongs “inactive”; to `C[C@H]1CCCCO[C@H](CN(C)Cc2ccc3c(c2)OCO3)[C@@H](C)CN([C@@H](C)CO)C(=O)c2cc(NC(=O)CCC(F)(F)F)ccc2O1`, “inactive”.
Take `COc1ccc(S(=O)(=O)Nc2ccc3c(c2)C(=O)N([C@@H](C)CO)C[C@@H](C)[C@@H](CN(C)C(=O)Nc2ccccc2)OCCCC[C@H](C)O3)cc1`: the cytotoxicity call was “inactive”.
Consider `O=C(C[C@H]1C=C[C@@H](NC(=O)c2cccc(F)c2)[C@@H](CO)O1)NCCN1CCCC1`, for which the cytotoxicity call is “inactive”.
Turning to `C[C@H]1CCCCO[C@@H](CN(C)CC2CCCCC2)[C@@H](C)CN([C@@H](C)CO)C(=O)c2cc(NC(=O)CCCN(C)C)ccc2O1`, the cytotoxicity call was “inactive”.

Values taken from the antibiotic and cytotoxicity screens of Wong et al. (2023).
